# Source: PubChem BioAssay AID1508642 (National Center for Advancing Translational Sciences (NCATS), 2021)
# Screen size: about 43,000 compounds; about 200 (0.47%) were called active. About 12% were inconclusive and are not listed. Calls come from the whole dose curve; as a rule, active = well fitted cell-killing curve with a large enough effect; inconclusive = small, poorly fitted or top-dose-only effect, or effect the other way; inactive = flat fitted curve, though single readings scatter. This is one part of the list.
# Assay: Cell viability qHTS assay in S16 Pmp22-F2sN cells; note: nearly all actives have a fitted effect of over 65% in size
# Conditions: S16 Pmp22-F2sN Schwann cells viability, CellTiter-Glo, 24 h; series mostly up to 57.5 µM; activity change, negative = cytotoxicity: at the top concentration
# How it was run: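 S16 Pmp22-F2sN Schwann cells (500-1,000/well) in phenol-red-free DMEM with 10% FBS received 23 nL compound by pin tool for 24 h at 37 °C. Viability was then read as CellTiter-Glo luminescence after 15 min at room temperature.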
# % is set by controls: 0 for no effect and ±100 for the full control effect.
row,SMILES,"activity change, negative = cytotoxicity"
1,COc1ccc(Br)cc1CNC(=O)CCc1cn(Cc2ccc(C)cc2)c2ccccc12,inactive: 1.14%
2,Cc1scc(CN2CCN(c3ccc(F)cc3)CC2)c1C,inactive: 16%
3,COc1ccccc1N1CCN(S(=O)(=O)CCNC(=O)COc2ccccc2F)CC1,inactive: 4.51%
4,O=C(CCCn1c(=O)c2sccc2n(Cc2ccc(Cl)cc2)c1=O)NCc1ccc2c(c1)OCO2,inactive: -0.893%
5,Cc1ccc(CNc2ncccc2-c2nc(-c3ccc(Cl)cc3)no2)cc1,inactive: 2.29%
6,CC(C)CC(NC(=O)C1CCCCC1)C(=O)Nc1cccc(C(F)(F)F)c1 (stereo not given),inactive: 1.53%
7,CC(C)c1ccc(NC(=O)CN2C(=O)CSc3ccc(S(=O)(=O)N4CCCC4)cc32)cc1,inactive: -3.95%
8,Cc1ccc(N2C(=O)N(CC(=O)C(C)(C)C)c3ccccc3S2(=O)=O)cc1C,inactive: 8.57%
9,CCCSc1nnc2c(n1)OC(c1sccc1C)Nc1ccccc1-2 (stereo not given),inactive: 5.45%
10,CCc1cccc(NC(=O)c2cc3c(=O)n(Cc4ccc(OC)cc4)ccc3nc2C)c1,inactive: -28.8%
11,CCOc1ccc(CCNC(=O)c2ccc(Nc3nc4ccccc4n4nnnc34)cc2)cc1OCC,inactive: -26.9%
12,CCOc1ccc(-c2cc(C(=O)N3CCN(S(=O)(=O)c4cc(Cl)ccc4OC)CC3)[nH]n2)cc1,inactive: -8.24%
13,Cc1ccc(C2CC(=O)Nc3cc4c(cc32)OCCO4)cc1 (stereo not given),inactive: -4.01%
14,CCc1ccc(Cn2c(CNS(=O)(=O)c3ccc(F)c(Cl)c3)nc3cccnc32)cc1,inactive: -0.826%
15,CCOc1ccc(C(=O)c2oc3ccccc3c2NC(=O)Cc2coc3cc(C)cc(C)c23)cc1,inactive: 5.79%
16,CC(=O)N1CCCC1c1nc2ccccc2n1Cc1ccccc1 (stereo not given),inactive: 7.81%
17,Cc1ccc(C)c(N2CCN(C(=O)Cn3ncc4ccsc4c3=O)CC2)c1,inactive: -8.81%
18,CCOC(=O)c1ccc(NC(=O)c2c(N3CCCC3=O)c3cc(OC)ccc3n2C)cc1,inactive: 6.17%
19,Cc1cc2oc(C(=O)N(Cc3ccccc3F)C3CCS(=O)(=O)C3)c(C)c2cc1Cl (stereo not given),inactive: -8.6%
20,Cc1c(Cl)cccc1NC(=O)CN1C(=O)COc2ccc(S(=O)(=O)N3CCOCC3)cc21,inactive: 3.14%
21,CCOC(=O)c1ccc(NC(=O)c2oc(=O)c3ccccc3c2-c2ccccc2)cc1,inactive: 5.69%
22,COc1ccccc1-c1nc2c(c(SCC(=O)Nc3c(C)cc(C)cc3C)n1)Cc1c(CO)cnc(C)c1O2,inactive: 4.05%
23,CCC(=O)N1CCc2cc(S(=O)(=O)CCC(=O)NCc3ccc(C)cc3)ccc21,inactive: 15.4%
24,CCOC(=O)c1c(NC(=O)c2cc3nc(-c4ccc(OC)cc4)cc(C(F)(F)F)n3n2)sc2c1CCC(C)C2 (stereo not given),inactive: -7.75%

row,SMILES,"activity change, negative = cytotoxicity"
1,CCc1cccc(NC(=O)C(Cc2ccccc2)NS(=O)(=O)c2ccc3c(c2)oc(=O)n3C)c1 (stereo not given),inactive: -4.45%
2,CCCCOC(=O)c1ccc(NC(=O)Cn2nnc3sc4c(c3c2=O)CCCC4)cc1,inactive: 11.9%
3,Cc1cccc(NC(=O)c2sc(-n3nc(C)c(Cc4ccc5c(c4)OCO5)c3C)nc2C)c1C,inactive: -15.4%
4,COc1ccc(-c2noc(CSc3nnc(C)n3-c3ccc(OC)cc3)n2)cc1,inactive: -10.9%
5,COc1ccccc1NC(=O)c1sc2nc(N3CCOCC3)c3c(c2c1N)CC(C)(C)OC3,inactive: 4.98%
6,COc1ccc(-c2cc(C)no2)cc1S(=O)(=O)NC(C)C,inactive: -1.91%
7,CCCOC(=O)CSc1ncnc2sc3c(c12)CCC(C)C3 (stereo not given),inactive: 1.22%
8,COc1cccc(NC(=O)N2CCN3CCCCC3C2)c1 (stereo not given),inactive: 1.15%
9,COc1cc(OC)cc(N2C(=O)N(CC(=O)c3ccc(F)cc3)c3ccccc3S2(=O)=O)c1,inactive: 2.31%
10,COc1ccc(CN2CCc3nc(SCC(=O)Nc4cc(C)cc(C)c4)[nH]c(=O)c3C2)cc1,inactive: 0.309%
11,COc1ccc(-c2noc(Cn3c(=O)c4ccccc4n(CC(=O)Nc4cccc(OC)c4)c3=O)n2)cc1,inactive: -3.11%
12,CCOC(=O)c1ccc(NC(=O)N2CCOc3ccccc32)cc1,inactive: 4.82%
13,COCCCNC(=O)C(=O)Nc1c2c(nn1-c1cccc(Cl)c1)CSC2,inactive: -3.64%
14,Cc1ccccc1-c1nnc(CN2CCN(c3ccccn3)CC2)o1,inactive: 4.61%
15,Cc1cc(Br)ccc1NC(=O)C1CCN(S(=O)(=O)c2cccc3nsnc23)CC1,inactive: -2.53%
16,CCCCCSc1nc2sc3c(c2c(=O)n1-c1ccccc1)CCN(C(C)=O)C3,inactive: -2.34%
17,Cc1nn(C(=O)c2ccccc2F)c(C)c1S(=O)(=O)N1CCCCCC1,inactive: -8.05%
18,COc1ccc(-c2oc3ncn4nc(COc5c(C)cccc5C)nc4c3c2-c2ccc(OC)cc2)cc1,inactive: 14%
19,CCOc1ccccc1NC(=O)N1CCc2cc(S(=O)(=O)N3CCC(C)CC3)ccc21,inactive: 1.41%
20,CNC(=O)Cn1cc(S(=O)(=O)Cc2ccccc2F)c2ccccc21,inactive: 7.67%
21,COC(=O)c1c(-c2cccs2)csc1NC(=O)COc1c(C)ccc(C)c1C,inactive: -5.45%
22,CCOc1ccccc1CNC(=O)C1CCCN(c2ncnc3onc(-c4ccc(F)cc4)c23)C1 (stereo not given),inactive: 3.14%
23,Cc1ccc(CN2CCc3nc(N4CCN(c5ccccc5F)CC4)ncc3C2)cc1C,inactive: -3.3%
24,COc1cccc(-c2cc(C(F)(F)F)nc(NCCc3ccccc3)n2)c1,inactive: 13.7%

row,SMILES,"activity change, negative = cytotoxicity"
1,Cc1nc2c(C(=O)NCCc3ccc(Cl)cc3)c[nH]n2c(=O)c1Cc1ccc(Cl)cc1,inactive: 4.59%
2,O=C(CSc1nnc(-c2ccc(O)cc2)o1)c1ccc(Br)cc1,inactive: 1.16%
3,Cc1ccc2c(c1)-c1nc(-c3ccc4c(c3)NC(=O)CO4)cc(-c3ccc(F)cc3)c1CO2,inactive: 22.7%
4,CCNC(=O)c1cnc2c(-c3ccccc3)c(C)nn2c1C,inactive: 7.48%
5,CNC(=O)CN1C(=O)c2cccnc2Sc2ccccc21,inactive: 0.0311%
6,CC(C)CC1N=C2c3ccccc3N=C(SCC(=O)NCCc3ccc(Cl)cc3)N2C1=O (stereo not given),inactive: -0.518%
7,CC(C)CCn1c(=O)c2sccc2n2c(CCCC(=O)NC(C)C)nnc12,inactive: -0.0957%
8,COc1ccc(-c2nc3cc(C)ccn3c2NC(=O)c2ccc(C)c(C)c2)cc1,inactive: 3.91%
9,COc1cc(Cl)c(C)cc1NC(=O)c1cc2c(Cl)nc3ccc(C)cc3c2s1,inactive: -16%
10,Cc1cccc(-c2nc3c(c(SCc4ccccc4Cl)n2)Cc2c(CO)cnc(C)c2O3)c1,inactive: 8.36%
11,CCOc1ccccc1NC(=O)c1c(NC(=O)C(C)Oc2ccc(Cl)cc2)sc2c1CCCCC2 (stereo not given),inactive: 16.7%
12,Cc1cccc(OCC(=O)Nc2ccccc2OCc2cc(=O)n3ccccc3n2)c1,inactive: 1.04%
13,CN(C)c1ccc(-n2c(CCC(=O)O)ccc2-c2ccccc2)cc1,inactive: 18.7%
14,COc1ccc(CC(=O)NCc2ccc3c(c2)CCN3C(=O)c2ccccc2)cc1OC,inactive: 2.15%
15,COc1ccc(C2=NC(c3ccncc3)=Nc3ccc(Br)cc3N2)cc1,inactive: 3.04%
16,CCc1cccc(NC(=O)C2CCCN(S(=O)(=O)c3cccs3)C2)c1 (stereo not given),inactive: 22.4%
17,CCn1cc(C(=O)N2CCN(c3ccc(F)cc3)CC2)c(=O)c2cc(S(=O)(=O)N(C)C3CCCCC3)ccc21,inactive: -0.396%
18,CCOC(=O)C1=C(CN2CCCCC2)NC(=O)NC1c1cc(C)ccc1C (stereo not given),inactive: -13.3%
19,CCc1ccc(N2C(=O)CSC23C(=O)N(Cc2ccc(C)cc2)c2ccccc23)cc1 (stereo not given),inactive: 11.1%
20,CCCC(CCC)C(=O)Nc1cc(-c2cn3cccnc3n2)ccc1OC,inactive: 2.75%
21,O=C(c1ccc2c(c1)CCCC2)N1CCN(c2nc3c(F)cccc3s2)CC1,inactive: -2.29%
22,COc1cc(C(c2c(C)[nH][nH]c2=O)c2c(C)[nH][nH]c2=O)ccc1OC(=O)c1cccc(C)c1,inactive: 1.08%
23,CCn1cc(C(=O)NCc2ccccc2)c(=O)c2cc(S(=O)(=O)N3CCc4ccccc4C3)ccc21,inactive: -9.49%
24,CCOC(=O)C1CCCCN1S(=O)(=O)c1csc(C(N)=O)c1 (stereo not given),inactive: 4.31%

row,SMILES,"activity change, negative = cytotoxicity"
1,O=C(CSc1nc2c(c(=O)[nH]1)CCC2)Nc1ccccc1C(F)(F)F,inactive: 1.12%
2,COc1ccc(S(=O)(=O)c2c(C)c(NS(=O)(=O)c3ccccc3)cc(C)c2O)cc1,inactive: -4.41%
3,COc1ccc(Cn2cc(C(=O)c3ccc(C)cc3)c(=O)c3cc(OC)c(OC)cc32)cc1,inactive: -5.55%
4,Cc1ccccc1Nc1c(-c2ccc(Cl)s2)nc2cccc(C)n12,inactive: -1.22%
5,Cn1c(=O)oc2cc(S(=O)(=O)Nc3ccccc3O)ccc21,inactive: -0.518%
6,CCOc1ccc(NC(=O)CC2C(=O)N(c3ccccc3)C(=O)N2Cc2ccc3c(c2)OCO3)cc1 (stereo not given),inactive: -5.44%
7,Cc1ccc(CNC(=O)C2CCN(S(=O)(=O)c3cc(-c4noc(C)n4)ccc3C)CC2)cc1,inactive: -24.2%
8,Cc1nc2c(-c3ccccc3)c(C)nn2c(C)c1CCC(=O)NCc1ccc(F)cc1,inactive: 7.89%
9,Cc1c(Cl)cccc1-n1nc(C)c2c(C(=O)NCc3ccccc3)cc(C3CC3)nc21,inactive: -4.85%
10,Cc1ccc(-c2cc(NC(=O)COc3ccc(Cl)cc3C)on2)cc1,inactive: -23.1%
11,CCOc1ccc(CCNC(=O)c2cc3c(s2)-c2ccccc2OC3)cc1OCC,inactive: 16.1%
12,COc1ccc(-c2cc(C(F)(F)F)nc(SCC(=O)N3CCC(C)CC3)n2)cc1,inactive: 24.4%
13,COc1ccccc1N1CCN(C(=O)CSc2n[nH]c(-c3ccccc3)n2)CC1,inactive: 3.9%
14,Cc1cc2ccccc2n1-c1ccc(C(=O)N2CCC(C(=O)NCc3ccccc3Cl)CC2)s1,inactive: -22.4%
15,Cc1ccc(-n2c3c(c(=O)[nH]c2=O)C(NC(=O)c2ccccc2C)(C(F)(F)F)C(=O)N3)cc1 (stereo not given),inactive: 3.44%
16,COC(=O)c1scc(-c2ccc(C)cc2)c1S(=O)(=O)Nc1ccc(N(C)C)cc1,inactive: 12.5%
17,COc1ccc(-c2cn3c(n2)sc2cc(C(=O)Nc4cccc(OC)c4)ccc23)cc1,inactive: 9.59%
18,Cc1ccccc1NCc1cccn1-c1nnc(N2CCC(C)CC2)s1,inactive: -0.294%
19,CCOC(=O)C1=C(CN2CCN(c3ccccc3F)CC2)NC(=O)NC1c1ccc(Cl)cc1 (stereo not given),inactive: -21.6%
20,CC(CNC(=O)Cc1ccc(NC(=O)N2CCSc3ncccc32)cc1)c1ccccc1 (stereo not given),inactive: -0.549%
21,CC(C)CN(CCNC(=O)CN1C(=O)CSc2ccc(S(=O)(=O)N3CCOCC3)cc21)CC(C)C,inactive: 13.7%
22,Cc1ccc(NC(=O)Cn2c(=O)n(-c3ccccc3)c(=O)c3ccc(C(=O)NCc4ccc5c(c4)OCO5)cc32)c(C)c1,inactive: -4.07%
23,Cc1cccc(CNC(=O)c2ccc(NC(=O)N3CC(C)Sc4ccccc43)cc2)c1 (stereo not given),inactive: -5.66%
